No constants are given. Whether binding was seen depends on the method and setting. Binding seen in cells or lysates may run through a third protein. Some results given as binding are weak or reduced against the parent protein; the word gives no strength. Tags and fused reporters may be left off the sequences shown.
Legend:
[1] = molecular target: T1, GST-tagged Rpn10 (^GSTRpn10) (yeast) (UniProt P38886); assay: pull-down; GST-Rpn1, GST-Rpn10 or GST on GSH beads incubated with yeast extract with myc-Cdc53 and GFP-Ho mixed with bacterial lysate with HIS-Ufo1 (Figure 3B); only the target purified
T1 sequence: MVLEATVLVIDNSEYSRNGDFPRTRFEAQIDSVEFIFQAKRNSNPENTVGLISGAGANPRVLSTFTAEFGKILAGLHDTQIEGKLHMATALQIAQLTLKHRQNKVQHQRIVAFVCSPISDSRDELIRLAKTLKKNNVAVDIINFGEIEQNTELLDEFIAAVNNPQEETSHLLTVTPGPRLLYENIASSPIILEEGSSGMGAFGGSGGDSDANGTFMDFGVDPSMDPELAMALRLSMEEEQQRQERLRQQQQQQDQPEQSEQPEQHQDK

[2] = molecular target: T2, GST-tagged Rpn1 (^GSTRpn1) (yeast) (UniProt P38764); assay: as above
T2 sequence: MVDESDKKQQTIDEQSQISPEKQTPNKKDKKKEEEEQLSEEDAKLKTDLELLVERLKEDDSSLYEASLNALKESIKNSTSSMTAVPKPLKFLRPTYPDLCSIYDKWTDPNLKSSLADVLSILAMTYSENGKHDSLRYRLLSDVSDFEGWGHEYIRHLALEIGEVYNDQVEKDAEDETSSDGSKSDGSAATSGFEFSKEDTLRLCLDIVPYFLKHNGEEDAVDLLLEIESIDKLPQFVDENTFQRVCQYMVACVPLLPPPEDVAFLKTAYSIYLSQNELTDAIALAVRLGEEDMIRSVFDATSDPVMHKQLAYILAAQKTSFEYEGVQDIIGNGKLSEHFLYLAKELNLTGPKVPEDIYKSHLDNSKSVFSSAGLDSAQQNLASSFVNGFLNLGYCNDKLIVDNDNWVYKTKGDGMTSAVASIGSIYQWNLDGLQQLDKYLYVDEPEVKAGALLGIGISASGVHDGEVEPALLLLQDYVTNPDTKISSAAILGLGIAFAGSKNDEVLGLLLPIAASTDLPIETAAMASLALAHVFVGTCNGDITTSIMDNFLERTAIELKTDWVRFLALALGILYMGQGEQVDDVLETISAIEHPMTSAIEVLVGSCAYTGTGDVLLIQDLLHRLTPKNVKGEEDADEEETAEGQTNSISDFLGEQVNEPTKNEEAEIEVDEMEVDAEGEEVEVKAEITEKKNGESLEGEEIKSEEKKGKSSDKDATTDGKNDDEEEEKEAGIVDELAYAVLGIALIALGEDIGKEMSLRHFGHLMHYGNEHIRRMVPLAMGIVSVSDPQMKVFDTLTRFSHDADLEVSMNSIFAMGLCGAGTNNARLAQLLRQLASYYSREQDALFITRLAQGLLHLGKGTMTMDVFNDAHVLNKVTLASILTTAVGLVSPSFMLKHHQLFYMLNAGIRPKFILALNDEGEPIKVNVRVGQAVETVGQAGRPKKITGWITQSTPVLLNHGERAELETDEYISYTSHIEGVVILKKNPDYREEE

[3] = molecular target: T3, GST-tagged full-length Ufo1 (^GSTFL-Ufo1) (yeast) (UniProt Q04511); assay: pull-down; GST-Ufo1 or GST-Ufo1-WD40 on GSH beads incubated with yeast extract (wild type or ddi1Δ) with myc-Cdc53, a GFP-tagged 19S RP subunit and GFP-Ho present (Figures 2A, 2B, S2, S3); only the target purified
T3 sequence: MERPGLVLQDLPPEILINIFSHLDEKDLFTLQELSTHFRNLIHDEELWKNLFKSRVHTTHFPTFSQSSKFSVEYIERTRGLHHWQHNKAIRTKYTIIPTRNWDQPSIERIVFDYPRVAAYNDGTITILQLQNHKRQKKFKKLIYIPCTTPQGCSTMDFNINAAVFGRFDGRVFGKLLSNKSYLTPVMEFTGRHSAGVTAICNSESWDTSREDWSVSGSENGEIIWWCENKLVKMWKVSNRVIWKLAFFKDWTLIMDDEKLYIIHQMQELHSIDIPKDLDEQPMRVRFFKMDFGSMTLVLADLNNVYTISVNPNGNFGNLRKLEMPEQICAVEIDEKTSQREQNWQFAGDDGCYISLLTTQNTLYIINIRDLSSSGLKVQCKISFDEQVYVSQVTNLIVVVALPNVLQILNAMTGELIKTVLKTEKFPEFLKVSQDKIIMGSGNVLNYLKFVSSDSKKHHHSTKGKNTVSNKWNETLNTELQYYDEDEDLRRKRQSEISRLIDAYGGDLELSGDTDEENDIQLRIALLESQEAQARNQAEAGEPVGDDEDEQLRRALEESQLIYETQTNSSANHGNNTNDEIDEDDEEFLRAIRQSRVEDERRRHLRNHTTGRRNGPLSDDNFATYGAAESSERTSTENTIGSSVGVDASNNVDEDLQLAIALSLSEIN

[4] = molecular target: T3, GST-tagged full-length Ufo1 (^GSTFL-Ufo1) (yeast); assay: co-IP; bacterial lysates with HIS-Rpn1 and GST-Ufo1 mixed with yeast extract with myc-Cdc53 and GFP-Ho; aliquots immunoprecipitated with anti-myc, anti-GFP, anti-GST or anti-HIS and Protein A beads (Figure 4, + Ho)

binding [1]: binds
binding [2]: binds
binding [3]: binds
binding [4]: binds
B1: GFP-tagged Ho endonuclease (^GFPHo) (enzyme, UniProt P09932 1-586)
chain: MLSENTTILMANGEIKDIANVTANSYVMCADGSAARVINVTQGYQKIYNIQQKTKHRAFEGEPGRLDPRRRTVYQRLALQCTAGHKLSVRVPTKPLLEKSGRNATKYKVRWRNLQQCQTLDGRIIIIPKNHHKTFPMTVEGEFAAKRFIEEMERSKGEYFNFDIEVRDLDYLDAQLRISSCIRFGPVLAGNGVLSKFLTGRSDLVTPAVKSMAWMLGLWLGDSTTKEPEISVDSLDPKLMESLRENAKIWGLYLTVCDDHVPLRAKHVRLHYGDGPDENRKTRNLRKNNPFWKAVTILKFKRDLDGEKQIPEFMYGEHIEVREAFLAGLIDSDGYVVKKGEGPESYKIAIQTVYSSIMDGIVHISRSLGMSATVTTRSAREEIIEGRKVQCQFTYDCNVAGGTTSQNVLSYCRSGHKTREVPPIIKREPVYFSFTDDFQGESTVYGLTIEGHKNFLLGNKIEVKSCRGCCVGEQLKISQKKNLKHCVACPRKGIKYFYKDWSGKNRVCARCYGRYKFSGHHCINCKYVPEAREVKKAKDKGEKLGITPEGLPVKGPECIKCGGILQFDAVRGPHKSCGNNAGARIC
modifications: ubiquitylated as produced in yeast (sites not given)
